# Results as given in PMC4336329 (PLoS ONE, 2015).
# Out of some 310,000 compounds screened, about 14,000 (4.5%) showed an effect of 50% or more. Effects have a minus sign here. This is one part of the list.
# Target: human ether-à-go-go-related gene (hERG) potassium channel (human, UniProt Q12809)
# Test: primary screen, population patch clamp on CHO cells stably expressing hERG
# 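Also: peak tail current of the secondary pulse compared with the same well before compound.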
# Sequence of human ether-à-go-go-related gene (hERG) potassium channel (Q12809 whole entry, looked up): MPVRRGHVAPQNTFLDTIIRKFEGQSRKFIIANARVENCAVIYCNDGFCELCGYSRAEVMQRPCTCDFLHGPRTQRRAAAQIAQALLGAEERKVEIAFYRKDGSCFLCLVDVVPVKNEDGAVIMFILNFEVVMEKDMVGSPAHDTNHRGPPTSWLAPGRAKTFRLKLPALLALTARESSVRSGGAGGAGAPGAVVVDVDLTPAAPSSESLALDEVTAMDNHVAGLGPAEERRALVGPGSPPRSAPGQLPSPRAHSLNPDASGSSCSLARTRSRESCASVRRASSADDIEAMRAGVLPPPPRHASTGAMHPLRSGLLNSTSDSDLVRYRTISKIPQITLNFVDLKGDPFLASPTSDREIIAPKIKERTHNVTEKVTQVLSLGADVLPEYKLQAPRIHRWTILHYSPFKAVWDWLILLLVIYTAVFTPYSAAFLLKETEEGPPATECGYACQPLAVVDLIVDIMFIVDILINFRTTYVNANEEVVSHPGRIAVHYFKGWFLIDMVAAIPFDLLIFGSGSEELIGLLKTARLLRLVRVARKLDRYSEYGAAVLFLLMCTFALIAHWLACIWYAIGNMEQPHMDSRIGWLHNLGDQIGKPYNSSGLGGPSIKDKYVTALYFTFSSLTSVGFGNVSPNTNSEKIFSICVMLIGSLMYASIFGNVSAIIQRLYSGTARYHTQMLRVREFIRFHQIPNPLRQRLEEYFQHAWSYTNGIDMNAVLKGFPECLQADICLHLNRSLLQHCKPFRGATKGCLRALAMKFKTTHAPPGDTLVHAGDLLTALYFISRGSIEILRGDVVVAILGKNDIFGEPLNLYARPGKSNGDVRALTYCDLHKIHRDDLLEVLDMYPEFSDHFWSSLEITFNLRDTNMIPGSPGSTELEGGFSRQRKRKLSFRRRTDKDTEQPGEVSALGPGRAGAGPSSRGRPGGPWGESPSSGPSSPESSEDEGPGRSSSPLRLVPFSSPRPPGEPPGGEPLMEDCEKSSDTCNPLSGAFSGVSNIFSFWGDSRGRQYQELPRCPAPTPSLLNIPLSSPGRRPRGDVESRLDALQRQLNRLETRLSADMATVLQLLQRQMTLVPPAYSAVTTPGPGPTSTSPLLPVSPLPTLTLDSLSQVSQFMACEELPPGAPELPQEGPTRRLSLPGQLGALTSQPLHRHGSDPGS
row,Compound,"hERG current change (%, negative = inhibition) at 10uM [%]"
1,COc1ccc(C2=NN(C(=O)c3ccco3)C(c3ccco3)C2)cc1OC (centres unmarked),7.24
2,O=C(NCc1ccccc1)C1=C[C@@H](C2CC2)C[C@@H](OCc2ccc(CO)cc2)O1,-44.2
3,COc1ccc(-c2cc(C(=O)NN)[nH]n2)cc1,14.7
4,N#C/C(=C(/O)CN1CCOCC1)c1nc(-c2ccccc2)cs1,12.3
5,CCOc1ccc(-n2cc(C(=O)Nc3cccc(C)n3)c3cc(OC)c(OC)cc3c2=O)cc1,2.31
6,CCCCCCOC1(c2ccccc2)OC(=O)c2ccccc21 (centres unmarked),16.7
7,O=C(NC(NNc1ccc([N+](=O)[O-])cc1)(C(F)(F)F)C(F)(F)F)c1ccccc1Cl,-8.05
8,Cc1cc(C)c(OCC(=O)OCC(=O)NCc2cccs2)c(C)c1,-2.5
9,Cc1cc(NC(=O)CSc2cn(CC(=O)N(C(C)C)C(C)C)c3ccccc23)no1,13.8
10,O=C(O)CSc1nc2ccccc2o1,3.8
11,Cc1cccnc1NC(=O)CSc1ccc2c(c1)OCCO2,6.85
12,Br.O=S1(=O)C=CC(Sc2nc3ccccc3[nH]2)C1 (centres unmarked),4.15
13,COc1ccc(C2C(C#N)=C(N)OC3=C2C(=O)CC(C)(C)C3)cc1Cn1cc([N+](=O)[O-])cn1 (centres unmarked),-6.92
14,O=C(CSc1ccc(Br)cc1)N1CCN(S(=O)(=O)c2ccccc2)CC1,-14.7
15,COC(=O)c1cc(OC)nc2ccc(Br)cc12,-0.525
16,Cc1ccc(CNC(=O)CSc2nc3ccccc3c(=O)n2CCCO)cc1,-73
17,CSc1nc(-c2ccccc2)nc(NC(=O)C(C)C)c1C(C)=O,-1.89
18,COc1ccc(S(=O)(=O)N2CCN(C)CC2)c2ccccc12,1.21
19,CC(C)(C)Sc1ccc(/C=N/O)cc1[N+](=O)[O-],-28.7
20,CC(=O)Nc1ccc(OCC(O)CN2CCN(c3ccc(Cl)cc3)CC2)cc1 (centres unmarked),-52.7
21,O=C(NC1CCCC1)C(c1ccc(F)cc1)N(Cc1ccc(F)cc1)C(=O)CCl (centres unmarked),0.467
22,CO[C@@]12[C@H](COC(N)=O)C3=C(C(=O)C(C)=C(N)C3=O)N1C[C@@H]1N[C@@H]12,2.61
23,Cc1cccc(N2CCCn3c2nc2c3c(=O)n(CCN3CCOCC3)c(=O)n2C)c1,-1.99
24,CCCCn1c(=O)c(CCC(=O)OCC(=O)Nc2cc(Cl)ccc2OC)nc2ccccc21,6.11
25,COc1ccc(CNC(=O)COc2cc(=O)n(C)c3ccccc23)cc1,-0.673
26,CCC(=O)Nc1sc(C(=O)N2CCCCC2)c(C)c1C#N,12
27,CN(Cc1ccccc1)c1nc2c(c(=O)[nH]c(=O)n2C)n1C,-9.94

row,Compound,"hERG current change (%, negative = inhibition) at 10uM [%]"
1,COC(=O)c1ccc(NC(=O)CSC2=NC(=O)C(c3ccccc3)C(=O)N2)cc1 (centres unmarked),-4.43
2,COc1ccc(N(CC(=O)NCCC2=CCCCC2)S(=O)(=O)c2ccc(C)cc2)cc1OC,22.5
3,N#CC1=C(N)Oc2n[nH]c(-c3ccccn3)c2C1c1c(F)cccc1Cl (centres unmarked),-3.23
4,CC(=O)Oc1ccc2c(C)cc(=O)oc2c1,7.11
5,O=C(COc1ccc(S(=O)(=O)NCc2ccccc2)cc1Cl)NCc1ccccn1,7.06
6,CC1(C)CC(=O)C=C(c2ccc3[nH]ccc3c2)C1,1.61
7,Cc1ccccc1Nc1nnc(SCC(=O)N(C)C2CCS(=O)(=O)C2)s1 (centres unmarked),-9.28
8,NNC(=O)c1cccc(S(=O)(=O)Nc2cccc(C(F)(F)F)c2)c1,1.4
9,CCOP(=O)(OCC)C(NC(=O)Nc1cccc(Cl)c1)c1ccccc1 (centres unmarked),5.75
10,Cc1cc(C)nc(SCC(=O)N(C)CC(=O)Nc2ccccc2Br)n1,-22.3
11,CCOP(=S)(OCC)N1CCOCCOCCN(P(=S)(OCC)OCC)CCOCCOCC1,-22.7
12,C=CCN1C(=O)C(CC(=O)O)S/C1=N/N=C/c1ccc(N(CC)CC)cc1 (centres unmarked),-0.434
13,O=C(c1ccccc1)N1CCN(c2nc3ccc([N+](=O)[O-])cc3s2)CC1,-55.4
14,CN(C)c1ccc(C(C(=O)NC2CCCC2)N(C(=O)c2ccco2)C2CC2)cc1 (centres unmarked),4.5
15,O=C(Cn1c2[n+](c3ccc(C(F)(F)F)cc31)CCCCC2)Nc1c(F)cccc1F.[Cl-],-16.7
16,CN(C)CCCNC(=O)c1ccc(-c2ccccc2)cc1,-36.7
17,O=C(c1cc2nc(-c3ccccc3)cc(-c3ccccc3)n2n1)N1CCCC1,9.99
18,O=C(Nc1cc([N+](=O)[O-])ccc1Cl)C1CC1,14.1
19,O=C(O)c1cc(O)c2c(c1)[C@H]([C@H]1c3cc(C(=O)O)cc(O)c3C(=O)c3c(O[C@@H]4O[C@H](CO)[C@@H](O)[C@H](O)[C@H]4O)cccc31)c1cccc(OC3O[C@H](CO)[C@@H](O)[C@H](O)[C@H]3O)c1C2=O (some centres unmarked),3.5
20,CCc1ccc2ncc(S(=O)(=O)c3ccc(C)c(C)c3)c(N3CCCC3)c2c1,0.769
21,Cc1cc(C=C2C(=O)NC(=O)NC2=O)c(C)n1-c1cccnc1,2.47
22,COc1cccc(CNC(=O)C2CCN(S(=O)(=O)c3ccccc3)CC2)c1,-36
23,Cc1c(NC(=O)N(C)C)c(=O)n(-c2ccccc2)n1C,3.75
24,CCOc1ccc2nc(NC(=O)C3CCN(C(=O)c4ccco4)CC3)sc2c1,10.1
25,COc1ccc(C(=O)NC(=S)Nc2cccc3cc(O)ccc23)cc1OC,15.2
26,COc1ccc(NC(C)=O)cc1NC(=O)CN1CCN(CC(=O)Nc2ccccc2Cl)CC1,-53.3
